According to patent US20140323413:

Target: DQ elastin

B1: porcine pancreas elastase (protein)
chain: VVGGTEAQRNSWPSQISLQYRSGSSWAHTCGGTLIRQNWVMTAAHCVDRELTFRVVVGEHNLNQNDGTEQYVGVQKIVVHPYWNTDDVAAGYDIALLRLAQSVTLNSYVQLGVLPRAGTILANNSPCYITGWGLTRTNGQLAQTLQQAYLPTVDYAICSSSSYWGSTVKNSMVCAGGDGVRSGCQGDSGGPLHCLVNGQYAVHGVTSFVSRLGCNVTRKPTVFTRVSAYISWINNVIASN
specific activity, in vitro elastin degradation assay: 135±5.5 u/mg, n=4
stated: degrades (fluorescence released from DQ elastin): bar 'Elastase' rises from about 150 relative fluorescence units at 0 hr to about 4100 at 2 hr
